Results on 29 molecules are retold here after the antibiotic and cytotoxicity screens of Wong et al. (2023).

The test system of one test is HSkMC. Put plainly: cytotoxicity call (relative viability < 0.9). Particulars: 10 µM.
The subject of a further test is HepG2. Put plainly: cytotoxicity call (relative viability < 0.9). Particulars: 10 µM.
Another test deals with S. aureus RN4220. The test can be described thus: growth inhibition call (relative growth <= 0.2). Particulars: 50 µM.

SMILES strings stand for the structures. Some of the results follow.

With `CC(=O)N(C)C1(c2ccccc2)CCN(CCC[C@]2(c3ccc(Cl)c(Cl)c3)CCCN(C(=O)c3ccccc3)C2)CC1`, the cytotoxicity call with HSkMC and with HepG2 was “active” throughout. Also, the growth inhibition call with S. aureus RN4220 is “inactive”.
Take `CC(C)NC(=O)N(C)C[C@@H]1Oc2ccc(NC(=O)Nc3ccc4c(c3)OCO4)cc2C(=O)N([C@H](C)CO)C[C@@H]1C`: the cytotoxicity call in the test with HSkMC and in the test on HepG2 was “inactive” in each case. Besides, the growth inhibition call in the test with S. aureus RN4220 is “inactive”.
In the case of `C[C@H]1CN([C@@H](C)CO)C(=O)c2cc(NC(=O)Cn3cnnn3)ccc2O[C@H]1CN(C)S(=O)(=O)c1cccs1`, the cytotoxicity call with HSkMC and with HepG2 was “inactive” throughout. Further, the growth inhibition call with S. aureus RN4220 was “inactive”.
On to `CC(C)NC(=O)N(C)C[C@H]1Oc2ccc(NC(=O)CCC(F)(F)F)cc2CC(=O)N([C@H](C)CO)C[C@@H]1C`, for which the cytotoxicity call in the test with HSkMC and in the test with HepG2 was “inactive” throughout. Further, the growth inhibition call in the test with S. aureus RN4220 is “inactive”.
For `COc1ccc(COC[C@]23N=C4SCC(=O)N4[C@H](c4ccccc4O2)[C@H]3COC(=O)NCCCCCC(=O)NO)cc1`, the cytotoxicity call in the test on HSkMC and in the test with HepG2 was “inactive” each time. In addition, the growth inhibition call in the test with S. aureus RN4220 is “inactive”.
For `COc1ccc(NC(=O)N(C)C[C@H]2OCCCC[C@@H](C)Oc3ccc(NS(=O)(=O)c4ccc(Cl)cc4)cc3C(=O)N([C@@H](C)CO)C[C@@H]2C)cc1`, the cytotoxicity call with HSkMC and in the test on HepG2 was “inactive” throughout. The growth inhibition call in the test with S. aureus RN4220 was “inactive”.
`C[C@H]1CN([C@@H](C)CO)C(=O)c2cc(NC(=O)Cc3ccccc3)ccc2O[C@@H]1CN(C)S(=O)(=O)c1ccccc1`: the cytotoxicity call with HSkMC and in the test with HepG2 was “inactive” throughout. In the test with S. aureus RN4220, the growth inhibition call is “inactive”.
Take `CCn1ccnc1CO`: the cytotoxicity call in the test with HSkMC and in the test on HepG2 was “inactive” each time. Further, the growth inhibition call in the test with S. aureus RN4220 is “inactive”.
For the molecule `CCC(=O)N(C)C[C@H]1Oc2ncc(C#C[C@H](C)O)cc2C(=O)N([C@H](C)CO)C[C@H]1C`, the cytotoxicity call in the test with HSkMC and in the test with HepG2 was “inactive” throughout. In the test on S. aureus RN4220, the growth inhibition call was “inactive”.
In the case of `C[C@H]1CN([C@@H](C)CO)S(=O)(=O)c2ccc(C#CC(C)(C)O)cc2O[C@@H]1CN(C)Cc1ccc(F)cc1`, the cytotoxicity call in the test on HSkMC and with HepG2 was “inactive” throughout. Moreover, in the test with S. aureus RN4220, the growth inhibition call was “inactive”.
For `Cc1ccc(-c2ccc3c(c2)O[C@H](CN(C)C(=O)Nc2ccc(C(F)(F)F)cc2)[C@@H](C)CN([C@@H](C)CO)S3(=O)=O)cc1`, the cytotoxicity call in the test with HSkMC is “active”. Moreover, the cytotoxicity call in the test on HepG2 was “inactive”. In addition, in the test with S. aureus RN4220, the growth inhibition call is “inactive”.
In the case of `C[C@H]1CN([C@@H](C)CO)C(=O)CCCn2nncc2CO[C@H]1CN(C)C(=O)Nc1cccc2ccccc12`, the cytotoxicity call in the test on HSkMC and in the test with HepG2 was “inactive” throughout. Also, the growth inhibition call in the test with S. aureus RN4220 was “inactive”.
Turning to `COc1ccc2c3c(n(c2c1)C)[C@H](CO)N(C[C@]13CN(C1)C(=O)C1CC1)C(=O)CN1CCOCC1`, the cytotoxicity call with HSkMC and in the test on HepG2 was “inactive” throughout. In addition, in the test on S. aureus RN4220, the growth inhibition call was “inactive”.
As for `C[C@H]1CN([C@@H](C)CO)C(=O)c2cc(NS(=O)(=O)c3cn(C)cn3)ccc2O[C@H]1CN(C)S(=O)(=O)c1cccs1`, the cytotoxicity call in the test on HSkMC and with HepG2 was “inactive” in each case. In the test with S. aureus RN4220, the growth inhibition call was “inactive”.
Regarding `COCC(=O)N1C[C@@H](C)[C@@H](OC)CN(C)C(=O)c2cc(NC(=O)c3cc(C)on3)ccc2OC[C@H]1C`, the cytotoxicity call in the test with HSkMC and with HepG2 was “inactive” in each case. Further, the growth inhibition call in the test with S. aureus RN4220 is “inactive”.
As to `C[C@@H]1CN([C@@H](C)CO)C(=O)c2cccc(NC(=O)C3CC3)c2O[C@H]1CN(C)S(=O)(=O)c1cn(C)cn1`, the cytotoxicity call with HSkMC and in the test on HepG2 was “inactive” each time. The growth inhibition call with S. aureus RN4220 was “inactive”.
In the case of `O=c1cc(-c2ccc(O)cc2)oc2cc(O)ccc12`, the cytotoxicity call with HSkMC and in the test with HepG2 was “inactive” throughout. Further, in the test on S. aureus RN4220, the growth inhibition call is “inactive”.
In the case of `Cc1ccc(S(=O)(=O)Nc2ccc3c(c2)CC(=O)N([C@@H](C)CO)C[C@@H](C)[C@@H](CN(C)CC2CC2)O3)cc1`, the cytotoxicity call in the test with HSkMC and in the test with HepG2 was “inactive” in each case. In the test on S. aureus RN4220, the growth inhibition call is “inactive”.
As for `O=C1CSC(=Nc2nccs2)N1`, the cytotoxicity call in the test on HSkMC and in the test on HepG2 was “inactive” each time. For the same molecule, the growth inhibition call in the test on S. aureus RN4220 was “inactive”.
Regarding `CC[C@@H](C)NCc1sccc1C`, the cytotoxicity call in the test with HSkMC and with HepG2 was “inactive” throughout. The growth inhibition call in the test with S. aureus RN4220 is “inactive”.
Consider `COc1cc(O)c2c(=O)c(OC)c(-c3ccc(OC)c(OC)c3)oc2c1`, for which the cytotoxicity call with HSkMC and in the test on HepG2 was “inactive” in each case. The growth inhibition call in the test with S. aureus RN4220 is “inactive”.
Turning to `CNC[C@H]1OCCCC[C@@H](C)Oc2ccc(NC(=O)c3ccncc3)cc2C(=O)N([C@@H](C)CO)C[C@@H]1C`, the cytotoxicity call with HSkMC and with HepG2 was “inactive” each time. The growth inhibition call in the test with S. aureus RN4220 is “inactive”.
Turning to `CC(C)(C)S(=O)N1Cc2cc(C(=O)N3CCN(Cc4ccccc4)CC3)nc(-c3cccc(C#CCC4CCCC4)c3)c2[C@H]1CCO` (some centres not stated), in the test with HSkMC, the cytotoxicity call is “inactive”. Also, the cytotoxicity call in the test with HepG2 was “active”. The growth inhibition call in the test with S. aureus RN4220 is “inactive”.
Regarding `CC(=O)n1cc([C@H]2C=C(C(=O)N3CCCCCCC3)O[C@@H](OCc3ccc(COC(=O)NCCCCCC(=O)NO)cc3)C2)c2ccccc21`, the cytotoxicity call in the test with HSkMC and with HepG2 was “inactive” each time. For the same molecule, the growth inhibition call with S. aureus RN4220 was “inactive”.
For the molecule `N#CCC(=O)NCc1ccccn1`, the cytotoxicity call in the test with HSkMC and in the test with HepG2 was “inactive” throughout. Moreover, the growth inhibition call with S. aureus RN4220 is “inactive”.
With `C[C@@H]1CCCCO[C@H](CN(C)Cc2ccc(Cl)c(Cl)c2)[C@@H](C)CN([C@@H](C)CO)C(=O)c2cc(NC(=O)Nc3ccc(F)cc3)ccc2O1`, the cytotoxicity call in the test on HSkMC is “inactive”. Besides, the cytotoxicity call with HepG2 was “active”. Further, the growth inhibition call in the test on S. aureus RN4220 was “inactive”.
Turning to `Cc1cc2nc3c(=O)[nH]c(=O)nc-3n(C[C@H](O)[C@H](O)[C@H](O)CO)c2cc1C`, the cytotoxicity call in the test on HSkMC (human skeletal muscle cells) and in the test on HepG2 was “inactive” in each case. Besides, in the test with S. aureus RN4220, the growth inhibition call is “inactive”.
On to `C[C@@H]1CCCCO[C@H](CN(C)Cc2ccccc2)[C@H](C)CN([C@@H](C)CO)C(=O)c2cc(NS(=O)(=O)c3ccc(Cl)cc3)ccc2O1`, for which the cytotoxicity call with HSkMC was “inactive”. For the same molecule, the cytotoxicity call in the test with HepG2 is “active”. The growth inhibition call in the test on S. aureus RN4220 was “inactive”.
`CCNC(=O)C[C@@H]1C=C[C@@H](NC(=O)C2CC2)[C@@H](CO)O1`: the cytotoxicity call in the test with HSkMC and in the test with HepG2 was “inactive” each time. In addition, the growth inhibition call in the test on S. aureus RN4220 is “inactive”.
